Source: the supplement of paper PMC11417369
± gives the standard deviation of the averaged measurements. Some of the results follow.

Test system: PfAP2-I AP2 domain 3 (GST-tagged)
Assay: gcPBM binding intensity (ln(normalized median fluorescence intensity)); higher = stronger DNA binding
Outline: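 The highest Masliner-normalised natural-log median intensity across replicate spots of either probe orientation is reported as binding intensity. GST-tagged P. falciparum DNA-binding domains expressed in E. coli were applied for 1 h to an Agilent 4 × 180k array of primer-extended double-stranded 36-bp intergenic genomic probes plus negative controls, and bound protein was detected with Alexa488 anti-GST antibody and scanned at 488 nm.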

Sequence	gcPBM binding intensity (ln)
ATAAATAGTATTATATGTACACATAATATTTATAAA [XGTACX_site4751]	7.84 ± 0.2
ATAGTTACACGCCAAAAAAAAAAAAAAAAAAAAAAA [CACACA_negctrl_site1133]	8.2 ± 0.49
TATAATTATGATGATAGTACGTATGAGTTCAAAACA [XGTACX_site4211]	7.89 ± 0.41
CACATTTTTTAAATATTTTTCTACTCCATAATGTTT [CACACA_negctrl_site557]	8.3 ± 0.2
TTAATATAGGGAAAAAAAAGAAAATCGAAAATGTGT [CACACA_negctrl_site834]	8 ± 0.75
TTAAAATGATTGTTACTTTTTTTTCCGTTTTCTTAA [CACACA_negctrl_site1195]	7.46 ± 0.8
TTGTATTAAAATCAAGTGCATATAATTTAAGTTCAT [GTGCAC_site9495]	9.54 ± 0.042
CTTTGGTTATAACACACATGCACACGTAAATAAATA [TGCATGCA_site976]	8.67 ± 0.38
GTAGGTTACAAAATGTGAGAGAAGCAAATATAGAAA [CACACA_negctrl_site1819]	8.04 ± 0.84
CATCACCTTTTTAAATGTACGCATAATACCAAAAAA [XGTACX_site1587]	8.22 ± 0.37
TTTTGTTTTTAGTTTATACACACCATATTAATATAA [CACACA_site3102]	8.25 ± 0.61
TATATTTATAAATGAACACACACGCAATTTGAATCG [CACACA_site3370]	7.89 ± 0.49
CTGTATTTATTTTTCTGTACCAAATCACCCCTTGTA [XGTACX_site395]	8.19 ± 0.63
TTTCTTTTTCGATATACACACTGTATGTGTCTAAAA [CACACA_site6054]	7.68 ± 0.46
TACGTTTTATGACACACACACAAAAAAAAAAAAAAA [CACACA_site7764]	8.14 ± 0.45
GATGTATAAAATAATACATGCATGTCCTACATATAT [TGCATGCA_site155]	7.76 ± 0.65
ACTATTTTAAAAATATGTACATACGTTGTAATTTAA [XGTACX_site7999]	7.96 ± 0.32
TTTCCGGTAATATGGAAATATATGTGGGTTTTTTTT [CACACA_negctrl_site1536]	7.62 ± 0.43
CGAAGGATAAACATACGTACATATATGTGTATAATA [XGTACX_site779]	7.88 ± 0.43
AAAAAATACATCAAAAGAAACATATATATATATATA [GTGCAC_negctrl_site719]	9.6 ± 0.33
TTTTTTTTTTAGTATGAACACACATATATATTATAA [CACACA_site8957]	7.76 ± 0.66
ATAAAACTTATTTAACGTACATATTTTATATACCTT [XGTACX_site5353]	7.9 ± 0.52
TATAAAATAAATAACAAAAAAAATAAAATAAAAATA [TGCATGCA_negctrl_site297]	7.5 ± 0.65
TATAGCAAAATATTCACACAAACTATTAATAAAAGT [CACACA_site5795]	7.66 ± 0.7
